In PubChem BioAssay AID2147 (National Center for Advancing Translational Sciences (NCATS), 2009):
Out of some 230,000 compounds screened, about 3,600 (1.6%) were called active. The inconclusive results got no clear call from the source; some entries with a clear call stand among them for comparison. The call rests on the fitted dose curve; in most records, active means well fitted inhibition curve with a large enough effect (not every such curve was filed as active); inconclusive means small, poorly fitted or top-dose-only effect, or another doubt; inactive means no such curve, though single readings can be large or run the other way. A potency beside an inconclusive call is a rough fit, not a confirmed value.

Biological target: Lysine-specific demethylase 4E (Homo sapiens) (UniProt B2RXH2)
Sequence of UniProt B2RXH2 (B2RXH2 whole entry, looked up, the tested form may be a part): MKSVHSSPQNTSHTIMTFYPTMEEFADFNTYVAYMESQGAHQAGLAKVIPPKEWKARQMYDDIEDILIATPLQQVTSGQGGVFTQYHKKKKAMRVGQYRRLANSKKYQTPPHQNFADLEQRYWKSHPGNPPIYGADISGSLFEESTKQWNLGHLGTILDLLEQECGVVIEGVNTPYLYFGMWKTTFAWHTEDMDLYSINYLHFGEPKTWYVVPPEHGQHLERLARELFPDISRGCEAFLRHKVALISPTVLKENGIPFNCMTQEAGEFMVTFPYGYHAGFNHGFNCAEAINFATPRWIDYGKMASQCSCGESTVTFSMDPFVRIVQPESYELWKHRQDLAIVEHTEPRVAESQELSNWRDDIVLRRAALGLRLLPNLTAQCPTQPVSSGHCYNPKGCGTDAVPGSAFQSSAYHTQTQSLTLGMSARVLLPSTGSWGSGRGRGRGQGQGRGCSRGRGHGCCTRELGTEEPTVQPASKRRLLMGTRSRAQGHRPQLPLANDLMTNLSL
Assay: qHTS Assay for Inhibitors of Human Jumonji Domain Containing 2E (JMJD2E)
Conditions: JMJD2E catalytic domain, FDH-coupled NADH fluorescence (FDH is formaldehyde dehydrogenase); series mostly up to 57.1 µM; activity change, negative = inhibition: at the top concentration
Further: nearly all actives have a fitted effect of over 50% in size.
Potency means the concentration at half of the fitted maximal effect; tags describe the fitted curve by direction and shape.
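Wherever activity change, negative = inhibition is given: 0% = wells with enzyme and -100% = buffer wells without enzyme.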

Compound	activity change, negative = inhibition	Potency
CCN(CC)S(=O)(=O)c1cc(NC(=O)COC(=O)c2sc3ccccc3c2Cl)ccc1C	inactive: -13.8%	
O=C(CSc1nc2ccccc2s1)N/N=C/c1cc([N+](=O)[O-])ccc1O		inconclusive: 39.8 µM [inhibitor, single point]
C=CCn1c(-c2ccc3[nH]c(C)c(C)c3c2)n[nH]c1=S		inconclusive: 31.6 µM [inhibitor, single point]
COc1ccc(C2CC(c3ccccc3)=NN2c2ccccc2)c(C(=O)O)c1OC (centres undefined)		inconclusive: 31.6 µM [inhibitor, partial curve]
CCOC(=O)c1sc(NC(=O)c2cc3c(s2)CCC(C)C3)nc1C (centres undefined)		inconclusive: 14.1 µM [inhibitor, partial curve]
Brc1ccc(CSc2ccc(-c3ccco3)nn2)cc1	inactive: -6.02%	
COc1cccc(-n2c([S-])c(C(=O)Nc3ccc(C(F)(F)F)cc3)[n+]3ccccc23)c1		inconclusive: 8.91 µM [inhibitor, partial curve]
COc1ccccc1N=CC1=C(O)CC(c2ccccc2)CC1=O (centres undefined)		inconclusive: 35.5 µM [inhibitor, single point]
COc1ccc(NC(=O)CN2CCN(CC(=O)Nc3ccc4c(c3)OCO4)CC2)cc1	inactive: -4.65%	
O=c1[nH]c(/C=C/c2ccc(OC(F)F)cc2)nc2c1cnn2-c1ccccc1		inconclusive: 20 µM [inhibitor, partial curve]
COC(=O)c1ccccc1NC(=O)N[C@@H](C)C(=O)OC		inconclusive: 31.6 µM [inhibitor, partial curve]
CC1CCCN(C(=O)c2ccc3c(=O)n(C4CCCC4)c(=S)[nH]c3c2)C1 (centres undefined)	inactive: 0.773%	
COc1ccc(NC(=O)c2cccc(C#N)c2)cc1NS(=O)(=O)c1ccc(F)cc1	inactive: 467%	
O=C(Nc1c2ccccc2nc2ccccc12)C(Cl)(Cl)Cl		inconclusive: 31.6 µM [inhibitor, partial curve]
CCOC(=O)C1=C(C)NC(C)=C(C(=O)OCC)C1C(=O)OCC(=O)N1CCC(C)CC1		inconclusive: 39.8 µM [inhibitor, single point]
COc1ccc(C2NC(=O)NC(c3ccccc3)=C2c2nc3ccccc3s2)cc1 (centres undefined)		inconclusive: 35.5 µM [inhibitor, single point]
O=C(Nc1ccccc1)N1CCN(Cc2ccccc2)CC1		inconclusive: 39.8 µM [inhibitor, single point]
O=C(N/N=C/c1ccccc1O)C1SCCCS1		active: 28.2 µM
COc1ccccc1Oc1c(C)oc2c(CN3CCN(CCO)CC3)c(O)ccc2c1=O		inconclusive: 28.2 µM [inhibitor, partial curve]
